Experimental data reported in PMC4336329 (PLoS ONE, 2015).
Hit rate of the full screen: of about 310,000 compounds, about 14,000 (4.5%) showed an effect of 50% or more. Effects have a minus sign here. This is one part of the list.

Target: human ether-à-go-go-related gene (hERG) potassium channel (human, UniProt Q12809)
Test: primary screen, population patch clamp on CHO cells stably expressing hERG
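Note: peak tail current of the secondary pulse compared with the same well before compound.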

Chain of human ether-à-go-go-related gene (hERG) potassium channel (Q12809 whole entry, looked up): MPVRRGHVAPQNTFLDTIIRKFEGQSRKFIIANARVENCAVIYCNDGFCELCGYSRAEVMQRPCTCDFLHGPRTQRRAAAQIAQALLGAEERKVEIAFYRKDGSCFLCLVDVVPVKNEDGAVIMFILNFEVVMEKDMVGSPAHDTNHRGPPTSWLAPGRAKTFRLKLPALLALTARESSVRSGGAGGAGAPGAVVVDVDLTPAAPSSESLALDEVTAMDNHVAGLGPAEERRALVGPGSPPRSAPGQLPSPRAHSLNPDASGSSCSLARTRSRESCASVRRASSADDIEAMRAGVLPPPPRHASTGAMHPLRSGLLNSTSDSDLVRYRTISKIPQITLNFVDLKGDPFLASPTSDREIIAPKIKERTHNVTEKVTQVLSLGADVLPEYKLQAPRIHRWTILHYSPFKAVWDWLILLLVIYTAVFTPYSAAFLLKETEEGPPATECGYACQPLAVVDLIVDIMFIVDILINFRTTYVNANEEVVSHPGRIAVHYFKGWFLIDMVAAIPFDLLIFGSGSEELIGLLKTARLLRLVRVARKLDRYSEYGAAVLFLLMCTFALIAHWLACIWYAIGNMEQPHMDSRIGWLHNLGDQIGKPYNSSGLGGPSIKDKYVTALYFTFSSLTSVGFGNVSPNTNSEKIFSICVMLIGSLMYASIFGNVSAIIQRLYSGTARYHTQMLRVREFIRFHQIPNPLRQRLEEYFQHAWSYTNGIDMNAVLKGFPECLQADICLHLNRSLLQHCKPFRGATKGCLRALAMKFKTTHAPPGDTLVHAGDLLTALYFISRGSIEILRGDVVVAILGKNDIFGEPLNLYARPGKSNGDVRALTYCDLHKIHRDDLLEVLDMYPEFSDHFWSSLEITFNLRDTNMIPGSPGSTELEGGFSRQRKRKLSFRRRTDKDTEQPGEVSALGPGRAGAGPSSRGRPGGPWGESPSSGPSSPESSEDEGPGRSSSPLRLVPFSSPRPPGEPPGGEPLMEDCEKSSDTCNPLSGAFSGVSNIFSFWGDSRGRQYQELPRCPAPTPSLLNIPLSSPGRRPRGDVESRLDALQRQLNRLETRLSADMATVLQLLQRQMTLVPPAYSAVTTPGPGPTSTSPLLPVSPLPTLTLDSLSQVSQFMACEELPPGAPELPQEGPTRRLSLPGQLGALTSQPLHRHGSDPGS

SMILES | hERG current change (%, negative = inhibition) at 10uM
Cc1c(CN2CCCC(C(=O)Nc3cccc(-n4cccn4)c3)C2)cnn1C (centres unmarked) | 7.86%
CCCCSC1(SCCCC)N=C(N)C2(C#N)C(c3ccccc3)NC(C)=CC12C#N (centres unmarked) | 2.53%
O=P(O)(O)C12CC3CC(CC(C3)C1)C2 | -0.367%
Br.C=CCn1c(=N)n(CC(=O)c2ccc(Cl)cc2)c2ccccc21 | -36.1%
COc1ccc(OC)c(NC(=O)CSc2nnc(-c3cccnc3)s2)c1 | -11.6%
CCN(CC)Cc1c(C(=O)N/N=C/c2ccc(C)o2)nnn1-c1nonc1N | -26.3%
CC1(C)CC(=O)C(C=Nc2ccc(O)c(N=CC3=C(O)CC(C)(C)CC3=O)c2)=C(O)C1 | 7.73%
NC(=O)c1ccc(NC(=O)c2cncn2-c2ccccc2)cc1 | 24.8%
COc1ccc(S(=O)(=O)N(C)c2ccc(C(=O)NCc3ccncc3)cc2)cc1 | -18.8%
CC1(C)O[C@@H]2C[C@H]3[C@@H]4C[C@H](F)C5=CC(=O)C=C[C@]5(C)[C@H]4[C@@H](O)C[C@]3(C)[C@]2(C(=O)CO)O1 | 7.88%
COc1ccc(-c2nnn(CC(=O)Nc3ccc4c(c3)OCCO4)n2)cc1OC | 16.2%
Cc1ccc(NC(=S)NCc2cccn2C)cc1 | 6.82%
COCCn1nnnc1C(c1cc2cc(C)ccc2[nH]c1=O)N1CCN(C2CCCCC2)CC1 (centres unmarked) | -19.9%
CCCc1cc(=O)oc2cc(C)c3c(C)coc3c12 | 5.51%
CCOC(=O)C(=CNc1ccc(Oc2cccnc2)nc1)C(=O)OCC | 0.00188%
O=C(Nc1ccccc1)C1CCCN(C(=O)c2ccc(F)cc2)C1 (centres unmarked) | -51.8%
COCc1cc(=O)[nH]c(SCC(=O)Nc2ccccc2)n1 | 4.96%
CC(C)C(=O)NNC(=O)CSc1nc(C2CCCCC2)nc2ccccc12 | 13.2%
Cc1cccc(NC(=O)c2ccc(COc3ccc4ccccc4c3)o2)n1 | 9.74%

SMILES | hERG current change (%, negative = inhibition) at 10uM
Cc1ccccc1NC(=O)CN1C(=O)CSc2ccc(S(=O)(=O)N3CCCC3)cc21 | 18.3%
COc1ccccc1C1C2=C(CC(C)(C)CC2=O)N(CC(=O)O)C2=C1C(=O)CC(C)(C)C2 | 17.6%
COc1cccc(C=Nc2cc(C)on2)c1O | 9.02%
COc1ccc(NC(=O)c2ccc(OC(F)F)cc2)cc1Cl | -16.7%
CC(C)CCNC(=O)CCCOc1ccccc1 | -4.92%
O=C(CS(=O)(=O)Cc1ccccc1)Nc1nnc(C2CCCCC2)s1 | -21.7%
Cc1ccc(-c2ccc(/C=N/NC(=O)CN3CCOCC3)o2)cc1[N+](=O)[O-] | -29.5%
CCc1nnc(NC(=O)C2c3ccccc3Oc3ccccc32)s1 | 3.2%
Cc1cc(C)cc(N(CC(=O)Nc2ccccc2-c2ccccc2)S(=O)(=O)c2ccccc2)c1 | 13.1%
CCOC(=O)C1=C(O)/C(=C/c2cn(CC(=O)NCC3CCCO3)c3ccccc23)SC1=Nc1ccc(C)cc1 (centres unmarked) | -0.845%
CCN(CC(=O)Nc1ccc(OC(F)F)cc1)C1CCCCC1 | -73.5%
C/C(=N\NC(=O)C1CCCN(S(=O)(=O)c2ccccc2)C1)c1cccnc1 (centres unmarked) | -6.82%
COc1ccc(CN2C(=O)NC3(CCCc4ccccc43)C2=O)cc1F (centres unmarked) | -14.4%
COCCCN(C(=O)CC1OC(=O)c2ccccc21)c1c(N)n(Cc2ccccc2)c(=O)[nH]c1=O (centres unmarked) | 12%
CCCn1c(N2CCN(CC(=O)NCc3cccs3)CC2)nc2ccccc21 | -74.7%
CC(C)(O)C#Cc1ccccc1C(=O)NC(CC(N)=O)C(=O)O (centres unmarked) | 14.3%
CCc1nnc(NC(=O)CSc2nnc(-c3cccnc3)n2CCc2ccccc2)s1 | -2.07%
O=C(NCCOc1ccccc1)c1cc([N+](=O)[O-])ccc1N1CCOCC1 | -62.1%
CC1(C)CC(=O)C2=C(C1)NCN(CCCN1CCOCC1)C2 | 20.4%

SMILES | hERG current change (%, negative = inhibition) at 10uM
CCCCn1c(SCC(=O)NC(C)(C)C)nnc1-c1ccco1 | -1.57%
O=c1[nH]c(N/N=C\c2ccc3c(c2)OCO3)nc2ccccc12 | -70.7%
CCc1[nH]nc2c1C(c1ccc(C)o1)C(C#N)=C(N)O2 (centres unmarked) | 3.55%
CCOC(=O)C1C2C=CC3(CN(Cc4cccs4)C(=O)C13)O2 (centres unmarked) | 1.73%
Cc1cnc(NC(=O)C2=C([O-])c3ccccc3S(=O)(=O)N2C)s1.[Na+] | 18%
CCC(=O)N(CCCN(C)C)c1nc(-c2cc(OC)ccc2OC)cs1.Cl | -37.3%
O=S(=O)(NCCC1CC1(Cl)Cl)c1ccccc1 (centres unmarked) | 4.4%
O=C(NCCc1ccc(Cl)cc1)c1ccc2[nH]c(=O)c(=O)[nH]c2c1 | 18.2%
O=C(Cn1c(CC(=O)N2CCOCC2)nc2ccccc21)Nc1ccc2c(c1)OC(F)(F)O2 | -20%
CN(C(=O)COC(=O)c1cc2ccccc2cc1O)c1c(N)n(Cc2ccccc2)c(=O)[nH]c1=O | 4.78%
O=C(O)C1CCCN1S(=O)(=O)c1ccc(Br)s1.O=C(O)[C@@H]1CCCN1 (centres unmarked) | 15.2%
COC(=O)c1c(NC(=O)CSc2nnnn2-c2ccccc2)sc2c1CCC(C)C2 (centres unmarked) | 20%
NS(=O)(=O)c1ccc(NC(=O)COC(=O)CCC2CCCCC2)cc1 | -5.65%
Cc1cc(C)cc(NC(=S)N2CCCC2)c1 | 17.4%
COc1ccc(CN(C)Cc2c(O)ccc3ccccc23)cc1 | -24.7%
CCC(=O)Nc1cccc(NC(=S)NC(=O)c2cc3ccccc3o2)c1 | 28.2%
CN1C2=NCCN2C(=O)c2cc(Cl)ccc21 | 9.98%
Cc1cc(C(=O)NP(=O)(N2CCOCC2)N2CCOCC2)c(C)n1C1CC1 | 12.6%
